No constants are given. Whether binding was seen depends on the method and setting. Some entries that bind do so weakly or less than the wild type.
T1: ARF11 (Arabidopsis thaliana) (UniProt Q9ZPY6)
T1 sequence: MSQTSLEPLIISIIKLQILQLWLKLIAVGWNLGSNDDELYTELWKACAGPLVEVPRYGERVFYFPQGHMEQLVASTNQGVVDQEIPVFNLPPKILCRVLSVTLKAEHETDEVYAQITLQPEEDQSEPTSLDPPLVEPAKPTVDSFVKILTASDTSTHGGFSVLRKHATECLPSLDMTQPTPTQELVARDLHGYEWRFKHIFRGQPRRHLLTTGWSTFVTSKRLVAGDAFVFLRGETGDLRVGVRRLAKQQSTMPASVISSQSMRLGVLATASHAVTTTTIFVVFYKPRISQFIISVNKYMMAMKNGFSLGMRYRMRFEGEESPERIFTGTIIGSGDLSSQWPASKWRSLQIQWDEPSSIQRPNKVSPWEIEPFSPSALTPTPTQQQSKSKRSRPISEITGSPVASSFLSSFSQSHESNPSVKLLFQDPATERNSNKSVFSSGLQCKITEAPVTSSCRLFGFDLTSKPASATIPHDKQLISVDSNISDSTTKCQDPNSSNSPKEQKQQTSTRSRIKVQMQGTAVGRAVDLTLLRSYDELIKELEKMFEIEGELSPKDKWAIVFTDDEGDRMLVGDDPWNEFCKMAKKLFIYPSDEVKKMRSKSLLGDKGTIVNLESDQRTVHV

T2: ARF19 (Arabidopsis thaliana) (UniProt Q8RYC8)
T2 sequence: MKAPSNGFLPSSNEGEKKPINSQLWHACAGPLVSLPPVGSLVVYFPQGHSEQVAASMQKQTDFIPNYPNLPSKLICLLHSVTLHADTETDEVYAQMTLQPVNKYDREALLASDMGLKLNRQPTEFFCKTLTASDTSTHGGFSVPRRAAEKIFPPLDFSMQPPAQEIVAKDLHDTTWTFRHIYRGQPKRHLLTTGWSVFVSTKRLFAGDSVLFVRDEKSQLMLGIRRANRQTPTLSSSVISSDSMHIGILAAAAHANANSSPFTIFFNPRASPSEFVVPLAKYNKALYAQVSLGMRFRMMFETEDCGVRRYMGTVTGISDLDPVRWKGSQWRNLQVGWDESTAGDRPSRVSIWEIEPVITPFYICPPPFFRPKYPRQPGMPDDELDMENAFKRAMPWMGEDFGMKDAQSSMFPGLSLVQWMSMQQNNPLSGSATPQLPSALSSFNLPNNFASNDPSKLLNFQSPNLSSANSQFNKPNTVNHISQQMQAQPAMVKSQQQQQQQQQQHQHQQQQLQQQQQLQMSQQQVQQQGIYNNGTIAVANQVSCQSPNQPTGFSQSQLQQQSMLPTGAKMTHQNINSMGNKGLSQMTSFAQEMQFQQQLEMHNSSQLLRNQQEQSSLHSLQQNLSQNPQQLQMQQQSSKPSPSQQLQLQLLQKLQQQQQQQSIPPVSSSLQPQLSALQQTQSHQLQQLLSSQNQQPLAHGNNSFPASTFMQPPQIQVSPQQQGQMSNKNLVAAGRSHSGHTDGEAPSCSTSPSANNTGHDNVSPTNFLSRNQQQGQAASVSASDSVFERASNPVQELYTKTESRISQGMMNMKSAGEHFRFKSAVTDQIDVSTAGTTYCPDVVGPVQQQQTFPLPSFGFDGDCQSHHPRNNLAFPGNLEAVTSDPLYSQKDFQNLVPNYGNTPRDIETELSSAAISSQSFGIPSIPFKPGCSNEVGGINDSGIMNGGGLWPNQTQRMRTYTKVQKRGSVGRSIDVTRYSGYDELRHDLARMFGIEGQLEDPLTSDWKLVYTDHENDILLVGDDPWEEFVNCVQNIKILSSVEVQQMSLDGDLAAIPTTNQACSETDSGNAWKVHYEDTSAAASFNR

T3: ARF5 (Arabidopsis thaliana) (UniProt P93024)
T3 sequence: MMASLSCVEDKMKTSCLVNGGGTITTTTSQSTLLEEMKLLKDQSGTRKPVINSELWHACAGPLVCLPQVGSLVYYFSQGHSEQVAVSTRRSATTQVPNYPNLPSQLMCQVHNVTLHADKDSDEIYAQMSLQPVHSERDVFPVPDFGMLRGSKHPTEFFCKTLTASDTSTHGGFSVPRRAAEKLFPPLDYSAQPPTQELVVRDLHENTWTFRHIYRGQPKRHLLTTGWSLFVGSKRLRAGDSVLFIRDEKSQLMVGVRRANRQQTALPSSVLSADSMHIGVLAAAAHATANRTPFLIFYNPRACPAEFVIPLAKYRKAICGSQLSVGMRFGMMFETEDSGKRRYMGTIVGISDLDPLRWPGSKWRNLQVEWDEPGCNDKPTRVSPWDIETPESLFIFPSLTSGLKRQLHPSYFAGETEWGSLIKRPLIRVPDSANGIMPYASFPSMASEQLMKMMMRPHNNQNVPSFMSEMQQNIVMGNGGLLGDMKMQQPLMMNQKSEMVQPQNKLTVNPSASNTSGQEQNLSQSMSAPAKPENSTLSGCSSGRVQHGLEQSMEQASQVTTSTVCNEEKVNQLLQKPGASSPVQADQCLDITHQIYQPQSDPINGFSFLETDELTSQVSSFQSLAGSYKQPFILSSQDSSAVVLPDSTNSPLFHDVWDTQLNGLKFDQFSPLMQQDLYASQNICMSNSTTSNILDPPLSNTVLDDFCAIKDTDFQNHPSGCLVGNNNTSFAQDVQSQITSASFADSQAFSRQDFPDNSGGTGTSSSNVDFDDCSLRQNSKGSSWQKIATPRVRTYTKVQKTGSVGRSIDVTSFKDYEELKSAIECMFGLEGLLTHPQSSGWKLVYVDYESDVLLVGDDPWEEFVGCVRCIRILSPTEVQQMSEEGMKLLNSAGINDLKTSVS

B1: Aux/IAA6 (protein, UniProt Q38824 1-189)
chain: MAKEGLALEITELRLGLPGDNYSEISVCGSSKKKKRVLSDMMTSSALDTENENSVVSSVEDESLPVVKSQAVGWPPVCSYRRKKNNEEASKAIGYVKVSMDGVPYMRKIDLGSSNSYINLVTVLENLFGCLGIGVAKEGKKCEYIIIYEDKDRDWMLVGDVPWQMFKESCKRLRIVKRSDATGFGLQQD
B2: Aux/IAA1 (protein, UniProt P49677 1-168)
chain: MEVTNGLNLKDTELRLGLPGAQEEQQLELSCVRSNNKRKNNDSTEESAPPPAKTQIVGWPPVRSNRKNNNNKNVSYVKVSMDGAPYLRKIDLKMYKNYPELLKALENMFKFTVGEYSEREGYKGSGFVPTYEDKDGDWMLVGDVPWDMFSSSCQKLRIMKGSEAPTAL
B3: Aux/IAA32 (protein, UniProt Q8RYC6 1-191)
chain: MDPNTPADFFKGSSKFHTYYSQTKKGGGVIDLGLSLRTIQHETYLPPARMIGLDGYGELIDWSQPSYNSITQLKSEDTGHQRLAQGYYNNEGESRGKYAYVKVNLDGLVVGRKVCLVDQGAYATLALQLNDMFGMQTVSGLRLFQTESEFSLVYRDREGIWRNVGDVPWKEFVESVDRMRIARRNDALLPF
B4: Aux/IAA10 (protein, UniProt Q38828 1-261)
chain: MNGLQEVCSSSGSVMIGLPAEEDENAAHSSEDSSCPDESVSETELDLALGLSIGRRKVRSSLSSSSSSLTRESGTKRSADSSPAAASNATRQVAVGWPPLRTYRINSLVNQAKSLATEGGLSSGIQKETTKSVVVAAKNDDACFIKSSRTSMLVKVTMDGVIIGRKVDLNALDSYAALEKTLDLMFFQIPSPVTRSNTQGYKTIKETCTSKLLDGSSEYIITYQDKDGDWMLVGDVPWQMFLGSVTRLRIMKTSIGAGVGK
B5: Aux/IAA9 (protein, UniProt Q38827 1-338)
chain: MSPEEELQSNVSVASSSPTSNCISRNTLGGLKEHNYLGLSDCSSVGSSTLSPLAEDDKATISLKATELTLGLPGSQSPARDTELNLLSPAKLDEKPFFPLLPSKDEICSSSQKNNASGNKRGFSDTMDQFAEAKSSVYTEKNWMFPEAAATQSVTKKDVPQNIPKGQSSTTNNSSSPPAAKAQIVGWPPVRSYRKNTLATTCKNSDEVDGRPGSGALFVKVSMDGAPYLRKVDLRSYTNYGELSSALEKMFTTFTLGQCGSNGAAGKDMLSETKLKDLLNGKDYVLTYEDKDGDWMLVGDVPWEMFIDVCKKLKIMKGCDAIGLAAAPRAMEKSKMRA
B6: Aux/IAA11 (protein, UniProt Q38829 1-246)
chain: MEGGSASGSASALSNDENLVVSCEDSSSPIGNELELGLTLSLGRKGYRDCRVYADDSSSSSSSSSLSRASVIAGIKRTADSMAATSGQVVGWPPIRTYRMNSMVNQAKASATEDPNLEISQAVNKNRSDSTKMRNSMFVKVTMDGIPIGRKIDLNAHKCYESLSNTLEEMFLKPKLGSRTLETDGHMETPVKILPDGSSGLVLTYEDKEGDWMLVGDVPWGMFIGSVRRLRIMKTSEATGKAQMIL
B7: Aux/IAA8 (protein, UniProt Q38826 1-321)
chain: MSYRLLSVDKDELVTSPCLKERNYLGLSDCSSVDSSTIPNVVGKSNLNFKATELRLGLPESQSPERETDFGLLSPRTPDEKLLFPLLPSKDNGSATTGHKNVVSGNKRGFADTWDEFSGVKGSVRPGGGINMMLSPKVKDVSKSIQEERSHAKGGLNNAPAAKAQVVGWPPIRSYRKNTMASSTSKNTDEVDGKPGLGVLFVKVSMDGAPYLRKVDLRTYTSYQQLSSALEKMFSCFTLGQCGLHGAQGRERMSEIKLKDLLHGSEFVLTYEDKDGDWMLVGDVPWEIFTETCQKLKIMKGSDSIGLAPGAVEKSKNKERV

target: T1, ARF11 (Arabidopsis thaliana); test: two-hybrid; S. cerevisiae AH109 co-transformed with pGBKT7-ARF (bait) and pGADT7-Aux/IAA (prey); growth on SD/-Ade-His-Leu-Trp against SD/-Leu/-Trp; at least 10 independent colonies; serial dilutions for strength

Row | binding | Binder
1 | no binding | B1
2 | no binding | B2
3 | no binding | B3
4 | no binding | B4
5 | no binding | B5
6 | no binding | B6

target: T2, ARF19 (Arabidopsis thaliana); test: as above

Row | binding | Binder
7 | binds | B1
8 | binds | B2
9 | binds | B3
10 | binds | B7
11 | binds | B4
12 | binds | B5
13 | binds | B6

target: T3, ARF5 (Arabidopsis thaliana); test: as above

Row | binding | Binder
14 | binds | B1
15 | binds | B2
16 | binds | B3
17 | binds | B7
18 | binds | B4
19 | binds | B5
20 | binds | B6

— paper PMC4274898
